Measured values: PubChem BioAssay AID1466 (National Center for Advancing Translational Sciences (NCATS), 2008)
The campaign covered roughly 200,000 compounds. About 10 (0.005%) were called active. The inconclusive results got no clear call from the source; some entries with a clear call stand among them for comparison. The call rests on the fitted dose curve; in most records, active means well fitted inhibition curve with a large enough effect; inconclusive means small, poorly fitted or top-dose-only effect, or effect the other way, or another doubt; inactive means no such curve, though single readings can be large or run the other way. Where the call is inconclusive, the potency comes from a doubtful curve fit.

target: Lysosomal alpha-glucosidase (Homo sapiens) (UniProt P10253); assay: qHTS Assay for Inhibitors of Human alpha-Glucosidase as a Potential Chaperone Treatment of Pompe Disease; conditions: purified human GAA, 4-MU-alpha-glucoside fluorescence; activity change, negative = inhibition: at 76.9 µM (top of the series) unless noted;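 on activity change, negative = inhibition: plate controls were uninhibited enzyme wells for no effect and no-enzyme background for full effect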
Method in brief: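 AC50 values come from Hill fits of compound titrations (up to 77 uM) against 4 nM human enzyme. Substrate 4-methylumbelliferyl-alpha-D-pyranoside at 400 uM, pH 5.0 citrate buffer, 20 min room temperature; fluorescence Ex 365/Em 440 after alkaline stop.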
Potency means the concentration at half of the fitted maximal effect; tags describe the fitted curve by direction and shape.

Q: `CCCCNC(=O)c1onc(CSc2ccccc2C)c1C(=O)O` was tested. Which Potency did it give?
A: inconclusive: 44.7 µM [inhibitor, single point]

Q: With `O=C(COC(=O)CCc1ccc(S(=O)(=O)N2CCCCC2)cc1)Nc1cccc2ccccc12` as the compound, how does the Potency read?
A: inconclusive: 50.1 µM [inhibitor, single point]

Q: `Cc1cccc(NC(=S)NCc2ccncc2)c1C` was tested. Which Potency did it give?
A: inconclusive: 5.01 µM [inhibitor, full curve]

Q: How did the activity change, negative = inhibition turn out when `O=C(CN1C(=O)C2C3C=CC(C4CC34)C2C1=O)Nc1cnc2ccccc2c1` (configuration not stated) was run?
A: inconclusive: 14.4% [activator]

Q: Which Potency does the source give for `CCOC(=O)Cc1csc(NC(=O)C(C)Oc2ccc3c(C)cc(=O)oc3c2)n1` (configuration not stated) here?
A: inconclusive: 0.398 µM [activator, full curve, poor fit]

Q: How did the Potency turn out when `COc1cccc(N(C(=O)Cn2nnc(-c3ccc(C)cc3)n2)C(C(=O)NC(C)(C)C)c2c[nH]c3ccccc23)c1` (configuration not stated) was run?
A: inconclusive: 6.31 µM [inhibitor, partial curve]

Q: How did the Potency turn out when `COc1ccc2[nH]c(C(=O)Nc3ccc(C)c(F)c3)cc2c1` was run?
A: inconclusive: 3.16 µM [inhibitor, single point]

Q: With `CCOc1ccc(NC(=S)N(CCc2c(C)[nH]c3ccc(C)cc23)Cc2ccco2)cc1` as the compound, how does the “activity change, negative = inhibition” value read?
A: inactive: 3.38%

Q: Which “activity change, negative = inhibition” value does the source give for `Cc1ccc2oc(=O)c(/C=C(\O)C(C)(C)C)nc2c1` here?
A: inactive: -6.64%

Q: For `CC(C)CNc1nnnc2c1sc1nc(N3CCOCC3)c3c(c12)CC(C)(C)SC3`, which Potency is on record?
A: inconclusive: 10 µM [inhibitor, full curve]

Q: Which Potency does the source give for `COc1ccc(-c2c3c(=O)n(C)c(=O)n(C)c3cn2Cc2ccccn2)cc1` here?
A: inconclusive: 0.158 µM [inhibitor, full curve, poor fit]

Q: How did the activity change, negative = inhibition turn out when `C[C@@H]1CN(Cc2cn(C)nc2-c2cccc(Cl)c2)C[C@H](C)O1` was run?
A: inconclusive: 19% [activator]

Q: For `CN(C)/C=C1\Oc2ccc3ccccc3c2C1=O`, which Potency is on record?
A: inconclusive: 31.6 µM [activator, single point]

Q: Which activity change, negative = inhibition does the source give for `N#Cc1c(N)n(CCNC(=O)c2ccc(Cl)cc2)c2nc3ccccc3nc12` here?
A: inconclusive: 17.2% [activator]

Q: `COc1ccc(C(=O)NCC(C)CN(C)C)cc1` (configuration not stated) was tested. Which Potency did it give?
A: inconclusive: 11.2 µM [inhibitor, single point]

Q: How did the Potency turn out when `CCN(CC)c1ccc(/C=N/NC(=O)Cc2ccc(OC)c(OC)c2)cc1` was run?
A: inconclusive: 28.2 µM [activator, single point]

Q: `COc1ccccc1Nc1nc(NCc2ccco2)nc(N)c1[N+](=O)[O-]` was tested. Which Potency did it give?
A: inconclusive: 2 µM [inhibitor, single point]

Q: `COc1ccc(C)cc1S(=O)(=O)N1CCN(S(=O)(=O)c2cc(C)ccc2OC)CC1` was tested. Which Potency did it give?
A: inconclusive: 11.2 µM [inhibitor, partial curve]

Q: Which activity change, negative = inhibition does the source give for `COc1ccc(-c2[nH]nc3c2C(c2ccc(OC(=O)N4CCOCC4)cc2)C(C#N)=C(N)O3)cc1` (configuration not stated) here?
A: inconclusive: -3.07% [inhibitor] [at 15.4 µM]

Q: For `COc1cccc(OCCNC(=O)c2ccccc2Sc2ccccc2C#N)c1`, which Potency is on record?
A: inconclusive: 50.1 µM [inhibitor, partial curve]

Q: Which Potency does the source give for `C=CCn1c(O)c(N=NC(=O)CNC(=O)c2cccs2)c2ccccc21` here?
A: inconclusive: 56.2 µM [inhibitor, single point]

Q: `O=C(O)C1C2C=CC(C2)C1C(=O)Nc1ccc2c(c1)OCCO2` (configuration not stated) was tested. Which Potency did it give?
A: inconclusive: 4.47 µM [inhibitor, full curve]

Q: For `O=c1oc2cc(OCc3c(F)c(F)c(F)c(F)c3F)ccc2cc1-c1ccccn1`, which Potency is on record?
A: inconclusive: 6.31 µM [activator, partial curve]

Q: With `CC(C)(C)NCC(=O)N/N=C/c1ccc(OCc2ccccc2)cc1` as the compound, how does the activity change, negative = inhibition read?
A: inconclusive: 16.2% [activator]

Q: For `COC(=O)c1sc2ccccc2c1NC(=O)c1ccc(S(=O)(=O)N2CC(C)CC(C)C2)cc1` (configuration not stated), which Potency is on record?
A: inconclusive: 35.5 µM [activator, partial curve]

Q: For `COc1ccccc1-c1nnc(SCCN2CCOCC2)n1-c1ccc(C)cc1`, which activity change, negative = inhibition is on record?
A: inconclusive: -18% [inhibitor]

Q: `Cc1nnc2sc(SCC(=O)Nc3nccs3)nn2c1=O` was tested. Which “activity change, negative = inhibition” value did it give?
A: inactive: -0.0313%

Q: How did the “activity change, negative = inhibition” value turn out when `CN(C)c1ccc(N/C=C/C(=O)c2ccccc2)cc1` was run?
A: inactive: -13.5%

Q: `Oc1c(Cl)cc(Cl)cc1C=Nc1ccc2c(c1)OCCO2` was tested. Which Potency did it give?
A: inconclusive: 56.2 µM [inhibitor, single point]

Q: `CC(C)c1ccc(S(=O)(=O)N2CCN(C(=O)c3cccc(F)c3)CC2)cc1` was tested. Which Potency did it give?
A: inconclusive: 0.355 µM [inhibitor, full curve, poor fit]

Q: Which Potency does the source give for `CCc1ccc(-c2nc(C(N)=O)c3[nH]c(=O)n(-c4ccccc4OC)c3n2)cc1` here?
A: inconclusive: 17.8 µM [activator, partial curve]

Q: With `CCOC(=O)C1(Cc2cccc(OC)c2)CCN(Cc2cccnc2)CC1` as the compound, how does the activity change, negative = inhibition read?
A: inconclusive: 15.5% [activator]

Q: `CCOC(=O)c1sc(C)nc1C1CCN(C(=O)OCC)CC1` was tested. Which Potency did it give?
A: inconclusive: 1 µM [inhibitor, full curve, poor fit]

Q: How did the Potency turn out when `O=C(Nc1cccc(OC(F)(F)F)c1)c1ccc(Br)o1` was run?
A: inconclusive: 50.1 µM [inhibitor, single point]

Q: Which “activity change, negative = inhibition” value does the source give for `NC(=O)Cc1c[nH]c2cccc(O)c12` here?
A: inactive: 1.5%

Q: With `CCn1ccnc1CN1CCCC(CO)(Cc2cccc(OC)c2)C1` (configuration not stated) as the compound, how does the activity change, negative = inhibition read?
A: inconclusive: 18.9% [activator]

Q: `O=C(NCC(c1cccnc1)N1CCN(c2ccc(F)cc2)CC1)c1ccccc1` (configuration not stated) was tested. Which Potency did it give?
A: inconclusive: 1 µM [inhibitor, single point]

Q: How did the “activity change, negative = inhibition” value turn out when `CCOc1cc2[nH]c(=O)n(CCC(=O)NCCc3ccc(OC)c(OC)c3)c(=O)c2cc1OCC` was run?
A: inactive: 3.49%

Q: For `COc1ccc(S(=O)(=O)n2nc(OC(=O)C3CCCCC3)cc2N)cc1`, which Potency is on record?
A: inconclusive: 0.178 µM [inhibitor, full curve, poor fit]

Q: For `Cc1ccc(-c2cc3nc(-c4ccccc4)cc(N)n3n2)cc1`, which Potency is on record?
A: inconclusive: 17.8 µM [activator, partial curve, poor fit]

Q: For `COCCn1c(=O)[nH]c2cc(C(=O)NCCN3CCN(c4ccccc4)CC3)ccc2c1=O`, which Potency is on record?
A: inconclusive: 35.5 µM [activator, partial curve]

Q: How did the Potency turn out when `O=C(CN(C(=O)c1ccc(Cl)cc1)C1CCCCC1)Nc1ccc(Cl)c([N+](=O)[O-])c1` was run?
A: inconclusive: 17.8 µM [inhibitor, partial curve, poor fit]
